{"source": "PubChem BioAssay AID504832", "about": "(National Center for Advancing Translational Sciences (NCATS), 2011)", "note": "The whole screen tested about 310,000 compounds, of which about 18,000 (5.8%) were called active. Inconclusive results, whose numbers are uncertain, are shown with a selection of clear calls. Calls follow the shape of the dose curve; as a rule, active = well fitted inhibition curve with a large enough effect; inconclusive = small, poorly fitted or top-dose-only effect, or another doubt; inactive = no such curve, though single readings can be large or run the other way. No potency is given beside an inconclusive call; the fits are too rough. Potency is read from the fitted curve at half-maximal effect; tags tell the direction and shape of the fitted curve."}
{"experiment": "Primary qHTS for delayed death inhibitors of the malarial parasite plastid, 48 hour incubation", "settings": "P. falciparum luciferase growth in erythrocytes; series mostly up to 28.7 µM", "method_in_brief": "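Luciferase-expressing P. falciparum in infected erythrocytes (2% hematocrit, 0.1% parasitemia final) in RPMI 1640/0.5% Albumax were exposed to compound for 48 hours at 37 C, 5% CO2; growth read as luminescence.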"}
{"smiles": "CC(=O)N1c2ccccc2C(=O)OC1c1cccnc1", "note": "(stereo unspecified)", "Potency": "inconclusive [inhibitor, partial curve, poor fit]"}
{"smiles": "CCCCOc1ccc(N2C(N)=NC(N)=NC23CCCCC3)cc1", "Potency": "active: 10.4 µM"}
{"smiles": "O=C(OCCCCN1C(=O)c2ccccc2C1=O)c1n[nH]c2ccccc12", "Potency": "inconclusive [inhibitor, single point]"}
{"smiles": "COc1ccc(S(=O)(=O)N2CCCOC2CNC(=O)C(=O)NCCc2ccco2)cc1OC", "note": "(stereo unspecified)", "Potency": "inactive"}
{"smiles": "CCn1cc(SCC(=O)NC2CCCC2)c2ccccc21", "Potency": "active: 7.38 µM"}
{"smiles": "COc1ccc(F)c(CN(C)CC2CCCN(CCc3ccc(F)cc3)C2)c1", "note": "(stereo unspecified)", "Potency": "inconclusive [inhibitor, single point]"}
{"smiles": "Cc1ccc(-n2c(C)c(C)c3c(NCCCO)ncnc32)cc1", "Potency": "inactive"}
{"smiles": "Nn1c(Cc2ccc(F)cc2)n[nH]c1=S", "Potency": "inactive"}
{"smiles": "Cn1c(=O)c(NC2CCCCC2)c2c3c(cccc31)C(=O)c1ccccc1-2", "Potency": "active: 13.1 µM"}
{"smiles": "COc1ccccc1C(=O)NC(=S)Nc1ccccc1N1CCCCC1", "Potency": "inactive"}
{"smiles": "CCOC(=O)C1=C(C)N=c2s/c(=C\\c3ccc(C(=O)O)cc3)c(=O)n2C1c1ccc(F)cc1", "note": "(stereo unspecified)", "Potency": "inconclusive [inhibitor, full curve]"}
{"smiles": "CC(C)(C)c1ccc(CCC2OCC(C[N+]3(C)CCOCC3)O2)cc1", "note": "(stereo unspecified)", "Potency": "inconclusive [inhibitor, partial curve, poor fit]"}
{"smiles": "Cc1cc(=O)n2c(sc3ccccc32)c1C#N", "Potency": "inactive"}
{"smiles": "COc1cccc(C(=O)N/N=C(\\CC(C)C)c2ccccc2)c1", "Potency": "inactive"}
{"smiles": "O=C(Nc1nnc(C2CCCC2)s1)C1CCC1", "Potency": "inactive"}
{"smiles": "COc1ccc2c(c1OC)C(=O)N1c3ccccc3C(=O)N(c3ccccc3)C21", "note": "(stereo unspecified)", "Potency": "active: 13.1 µM"}
{"smiles": "Cc1onc(C(=O)N2CCN(c3ccccc3)CC2)c1[N+](=O)[O-]", "Potency": "inconclusive [inhibitor, single point]"}
{"smiles": "CC(C)C(=O)N1CCN(c2ccc(NC(=O)c3cccs3)cc2Cl)CC1", "Potency": "inconclusive [inhibitor, full curve]"}
{"smiles": "O=C(Nc1ccccc1)C(Cc1ccccc1)NC(=O)C12CC3CC(CC(C3)C1)C2", "note": "(stereo unspecified)", "Potency": "inconclusive [inhibitor, single point]"}
{"smiles": "C[C@@]12C(=O)N(Cc3ccc(-c4ccccc4)cc3)CC(=O)N1[C@H](/C=C/c1ccccc1)[C@@H]1C(=O)N(c3ccccc3)C(=O)[C@@H]12", "Potency": "inconclusive [inhibitor, partial curve, poor fit]"}
{"smiles": "CC(=O)Cc1cc(O)c2ccccc2c1OC(=O)c1ccc(Br)cc1", "Potency": "active: 2.94 µM"}
{"smiles": "Cc1cc(N2CCOCC2)nc2cc(O)ccc12", "Potency": "inactive"}
{"smiles": "COc1cc(NCc2ccccc2)c2ncn(C(C)C)c2c1", "Potency": "inconclusive [inhibitor, single point]"}
{"smiles": "COCCCNC(=S)N1CCCC(c2nc3cc(C)c(C)cc3[nH]2)C1", "note": "(stereo unspecified)", "Potency": "inconclusive [inhibitor, partial curve, poor fit]"}
{"smiles": "COCCCC1CCN(C(=O)C2CCC(=O)N(Cc3ccccc3F)C2)CC1", "note": "(stereo unspecified)", "Potency": "inactive"}
{"smiles": "COc1ccc(NC(=O)CCCn2c(=O)c3sccc3n(Cc3ccc(C)cc3C)c2=O)cc1", "Potency": "inactive"}
{"smiles": "CCOc1cc(CN2CCCC(N3CCc4ccccc4C3)C2)ccc1O", "note": "(stereo unspecified)", "Potency": "inconclusive [inhibitor, partial curve]"}
{"smiles": "COC(=O)c1cc(OC)c(OC)cc1N1C(=O)CC(C)(C)CC1=O", "Potency": "inactive"}
{"smiles": "CCOc1ccc(C(=O)CC(C(=O)O)N2CCCCC2)cc1", "note": "(stereo unspecified)", "Potency": "inactive"}
{"smiles": "COc1ccc(/C=N/NC(=S)NCCc2ccccc2)cc1", "Potency": "inconclusive [inhibitor, single point]"}
{"smiles": "Cc1cc(-c2ccc(C(C)C)c(S(=O)(=O)N3CCC(C)CC3)c2)on1", "Potency": "active: 11.7 µM"}
{"smiles": "Cc1cccc(NS(=O)(=O)c2ccc(C(=O)NCC3(N4CCCCC4)CCCCC3)cc2)c1C", "Potency": "active: 2.62 µM"}
{"smiles": "O=C(N/N=C/c1ccncc1)c1ccc(NC(=O)c2cccc(Cl)c2)cc1", "Potency": "inconclusive [inhibitor, partial curve]"}
{"smiles": "COc1ccc(C)cc1N(CC(=O)Nc1cccnc1)S(=O)(=O)c1ccccc1", "Potency": "inconclusive [inhibitor, single point]"}
{"smiles": "Cc1cc(C)c(OCCCCCNCCO)c(C)c1", "Potency": "inconclusive [inhibitor, partial curve, poor fit]"}
{"smiles": "Cc1cccc(Nc2nc(NCc3ccco3)nc(N)c2[N+](=O)[O-])c1", "Potency": "inconclusive [inhibitor, single point]"}
{"smiles": "Cc1cc(C)c2nc(/N=C(\\N)NC(=O)c3ccccc3)nc(C)c2c1", "Potency": "inconclusive [inhibitor, single point]"}
{"smiles": "Cc1cc(C)n(-c2ccc(C(=O)Nc3cc(S(=O)(=O)N(C)C)ccc3Cl)cc2)n1", "Potency": "inconclusive [inhibitor, partial curve, poor fit]"}
{"smiles": "CCN1CCN(Cc2ccc(NC(=O)c3ccc(C)c(NC(=O)c4nccnc4N)c3)cc2C(F)(F)F)CC1", "Potency": "active: 5.22 µM"}
{"smiles": "O=C(CN1CCC(NC(=O)Nc2ccccc2)CC1)Nc1cccc([N+](=O)[O-])c1", "Potency": "inconclusive [inhibitor, partial curve, poor fit]"}
{"smiles": "O=C(CCCN1C(=O)/C(=C\\c2ccccc2)SC1=S)Nc1ccc(O)cc1", "Potency": "inconclusive [inhibitor, partial curve, poor fit]"}
{"smiles": "CC(C)(C)c1ccc(-c2nnc(SCC(=O)NC3CC3)o2)cc1", "Potency": "active: 2.08 µM"}
{"smiles": "COC(=O)C1=C(C)NC(=S)NC1c1ccco1", "note": "(stereo unspecified)", "Potency": "inactive"}
{"smiles": "CC(=O)N1c2ccc(S(=O)(=O)N3CCC(C(=O)NCc4ccc(N(C)C)cc4)CC3)cc2CC1C", "note": "(stereo unspecified)", "Potency": "inactive"}
{"smiles": "O=C(CN1CCN(S(=O)(=O)c2ccccc2)CC1)Nc1ccccc1C(=O)c1ccccc1", "Potency": "active: 13.1 µM"}
{"smiles": "CCOC(=O)c1oc2ccc(S(=O)(=O)N3CCC(C)CC3)cc2c1C", "Potency": "inconclusive [inhibitor, full curve, poor fit]"}
{"smiles": "O=C(NCCC1=CCCCC1)C1CCCN(c2nc3ccccc3o2)C1", "note": "(stereo unspecified)", "Potency": "inactive"}
{"smiles": "Oc1c(Br)cc(Br)c2cccnc12", "Potency": "inconclusive [inhibitor, single point]"}
{"smiles": "Cc1occc1-c1nnc(SCC(=O)Nc2ccc(F)cc2)n1Cc1ccccc1", "Potency": "inconclusive [inhibitor, partial curve, poor fit]"}
{"smiles": "NC(=O)c1ccccc1N/C=C/C(=O)c1cccs1", "Potency": "inactive"}
{"smiles": "O=C(CSc1nc2ccccc2n1CCc1ccccc1)c1ccc(O)c(O)c1", "Potency": "inactive"}
{"smiles": "CC(C)c1csc(CN2CCCC(CNC(=O)c3cccc4ccccc34)C2)n1", "note": "(stereo unspecified)", "Potency": "inconclusive [inhibitor, partial curve, poor fit]"}
{"smiles": "Cc1c(C)c2c(OCC(=O)NCc3ccccn3)cc3c(c2oc1=O)CCC(C)(C)O3", "Potency": "inconclusive [inhibitor, partial curve]"}
{"smiles": "O=C(COC(=O)Cc1ccc(Cl)cc1)Nc1ccccc1F", "Potency": "inactive"}
{"smiles": "CCN(CCNC(=O)c1ccc(CSc2nc3ccncc3[nH]2)cc1)c1ccccc1", "Potency": "active: 10.4 µM"}
{"smiles": "CCOc1nc(N2CCOCC2)nc(C)c1[N+](=O)[O-]", "Potency": "inactive"}
{"smiles": "Cc1ccc(CN2C(=O)CCC2C(=O)NC(C)C)cc1", "note": "(stereo unspecified)", "Potency": "inconclusive [inhibitor, full curve, poor fit]"}
{"smiles": "CCOc1ccccc1NC(=O)CN(c1ccc(OC)cc1)S(=O)(=O)c1c(C)[nH]c(=O)[nH]c1=O", "Potency": "inconclusive [inhibitor, partial curve, poor fit]"}
{"smiles": "COc1cc(NC(=O)CN2C(=O)NC(C)(c3ccc4ccccc4c3)C2=O)c(C)cc1[N+](=O)[O-]", "note": "(stereo unspecified)", "Potency": "inconclusive [inhibitor, single point]"}
{"smiles": "CON(C)S(=O)(=O)c1ccc2c(c1)N(Cc1ccc(C)cc1)C(=O)C1CCCN21", "note": "(stereo unspecified)", "Potency": "inconclusive [inhibitor, full curve, poor fit]"}
{"smiles": "COc1cc2[nH]c(=S)nc(NCc3cccc(Cl)c3)c2cc1OC", "Potency": "inconclusive [inhibitor, single point]"}
{"smiles": "O=C(Nc1ccccc1N1CCOCC1)c1ccc2c(c1)OCCO2", "Potency": "inconclusive [inhibitor, single point]"}
{"smiles": "CCOC(=O)CNC(=O)CSc1ncccc1-c1nc2ccccc2[nH]1", "Potency": "inconclusive [inhibitor, partial curve, poor fit]"}
{"smiles": "Cc1cc(F)ccc1NC(=O)c1cnccn1", "Potency": "inconclusive [inhibitor, single point]"}
{"smiles": "Cc1cc(C(=O)NCCN2CCN(c3cccc(Cl)c3)CC2)n(-c2ccccc2)n1", "Potency": "inconclusive [inhibitor, partial curve, poor fit]"}
{"smiles": "COCCCn1c(N)c(C(=O)Nc2sc3c(c2C(=O)OC)CCCC3)c2nc3ccccc3nc21", "Potency": "inconclusive [inhibitor, single point]"}
{"smiles": "CCCCN(C)CC(O)Cn1cc(/C=C/C(=O)c2ccc(C)cc2)c2ccccc21", "note": "(stereo unspecified)", "Potency": "active: 9.28 µM"}
{"smiles": "Cc1cccc(Cn2c(N(C)Cc3ccccc3)nc3c2c(=O)[nH]c(=O)n3C)c1", "Potency": "active: 11.7 µM"}
{"smiles": "O=c1c2ccccc2c(C=Nc2cccc(S(=O)(=O)NC3=NCCCCC3)c2)c(O)n1Cc1ccccc1", "Potency": "active: 1.65 µM"}
{"smiles": "CN(CCNC(=O)c1ccc(CS(=O)(=O)c2c(Cl)cccc2Cl)o1)CCc1ccccc1", "Potency": "inconclusive [inhibitor, single point]"}
{"smiles": "Cc1ccc(OCC(=O)N2CCc3ccccc3C2)cc1", "Potency": "inactive"}
